No constants are given. Whether binding was seen depends on the method and setting. For part of these data: In cells and extracts the contact can be indirect. Some binding calls cover weakened binding; strength is not graded here.
Columns and labels:
[1] = target: SIRPα of human peripheral blood monocytes (naïve, MCP-1-treated or transmigrated) (human (endogenous in peripheral blood monocytes)) (UniProt P78324); experiment: sucrose density gradient equilibrium ultracentrifugation; lysates of PBMC (naïve monocytes); sucrose gradient 5-35%, 165,000 g, 14 h, 4°C; ten fractions, WB of SIRPα
[2] = target: SIRPα of human peripheral blood monocytes (naïve, MCP-1-treated or transmigrated) (human (endogenous in peripheral blood monocytes)) (UniProt P78324); experiment: cross-linking; naïve monocytes (human and murine) treated with the cell-impermeable crosslinker DTSSP, 30 min, 25°C; lysis; SDS-PAGE and WB under non-reducing and reducing conditions
[3] = target: T1, murine SIRPα of mouse peripheral monocytes and macrophages (mouse (endogenous in monocytes and macrophages)), P97797; experiment: cross-linking; transmigrated monocytes and macrophages treated with the cell-impermeable crosslinker DTSSP, 30 min, 25°C; lysis; SDS-PAGE and WB under non-reducing and reducing (+DTT) conditions; DTT resolved SIRPα to its monomeric size; settings: remark: other sources report otherwise
T1 chain: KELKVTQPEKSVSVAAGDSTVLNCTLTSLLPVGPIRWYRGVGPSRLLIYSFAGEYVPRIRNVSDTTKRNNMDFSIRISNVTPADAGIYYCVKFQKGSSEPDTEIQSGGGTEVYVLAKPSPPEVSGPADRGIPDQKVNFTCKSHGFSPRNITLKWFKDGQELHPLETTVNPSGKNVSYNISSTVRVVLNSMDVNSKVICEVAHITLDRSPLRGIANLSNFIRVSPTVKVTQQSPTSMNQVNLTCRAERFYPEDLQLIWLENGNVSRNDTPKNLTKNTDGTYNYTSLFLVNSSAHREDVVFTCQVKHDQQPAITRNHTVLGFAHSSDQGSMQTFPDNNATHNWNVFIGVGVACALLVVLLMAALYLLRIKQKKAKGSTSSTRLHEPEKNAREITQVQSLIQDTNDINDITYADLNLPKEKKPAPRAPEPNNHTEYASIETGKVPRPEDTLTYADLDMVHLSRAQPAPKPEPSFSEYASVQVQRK

Amino acid sequences for entries named in this document (tags omitted). Residues count along the entry.
UniProt P78324, residues 31-504: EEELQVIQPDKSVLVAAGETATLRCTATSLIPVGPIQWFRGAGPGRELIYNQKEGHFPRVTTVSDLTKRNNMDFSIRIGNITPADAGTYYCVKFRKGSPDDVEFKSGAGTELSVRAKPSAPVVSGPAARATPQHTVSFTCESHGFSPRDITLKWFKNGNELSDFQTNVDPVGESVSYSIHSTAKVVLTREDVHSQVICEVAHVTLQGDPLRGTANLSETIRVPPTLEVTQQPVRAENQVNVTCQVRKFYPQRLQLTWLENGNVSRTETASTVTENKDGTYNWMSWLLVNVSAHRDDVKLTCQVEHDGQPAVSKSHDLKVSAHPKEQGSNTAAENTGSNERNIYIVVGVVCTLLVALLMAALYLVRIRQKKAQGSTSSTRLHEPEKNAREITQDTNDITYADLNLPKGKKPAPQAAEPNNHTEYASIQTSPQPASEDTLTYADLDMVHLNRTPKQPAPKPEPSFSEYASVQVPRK

[4] = target: T1, murine SIRPα of mouse peripheral …; experiment: sucrose density gradient equilibrium ultracentrifugation; lysates of DTSSP-crosslinked transmigrated monocytes and macrophages; sucrose gradients 5-35% (human monocytes) or 15-45% (mouse macrophages), 165,000 g, 14 h, 4°C; ten fractions, WB of SIRPα; settings: remark: other sources report otherwise
[5] = target: murine SIRPα of mouse peripheral monocytes and macrophages (mouse (endogenous in monocytes and macrophages)) (UniProt P97797); experiment: condition: only without DTSSP crosslinking, in 1% Triton X-100 lysate; sucrose density gradient equilibrium ultracentrifugation; lysates (1% Triton X-100) of macrophages without DTSSP crosslinking; sucrose gradient 15-45%, 165,000 g, 14 h, 4°C; ten fractions, WB of SIRPα
[6] = target: murine SIRPα of mouse peripheral monocytes and macrophages (mouse (endogenous in monocytes and macrophages)) (UniProt P97797); experiment: cross-linking; naïve monocytes (human and murine) treated with the cell-impermeable crosslinker DTSSP, 30 min, 25°C; lysis; SDS-PAGE and WB under non-reducing and reducing conditions

“SIRPα of human peripheral blood monocytes (naïve, MCP-1-treated or transmigrated) (from UniProt P78324 31-504) (receptor)” was tested, and the binding [1] was “no binding (condition: naïve monocytes (PBMC))” and the binding [2] was “no binding (condition: naïve monocytes)”.

B1: murine SIRPα of mouse peripheral monocytes and macrophages, P97797 32-513 (receptor)
chain: T1 chain
B1 was tested, and the binding [3] was “binds” and the binding [4] was “binds”.

B2: murine SIRPα of mouse peripheral monocytes and macrophages (receptor, UniProt P97797 32-513)
chain: T1 chain
In the case of B2, the binding [5] is reported as “no binding” and the binding [6] is reported as “no binding (condition: naïve monocytes)”.

Reference: publication PMC3797048
